Laboratory results: the supplement of paper PMC11417369
This is one part of the list.

System: PfSIP2 AP2 domain 1 (GST-tagged)
Test: gcPBM binding intensity (ln(normalized median fluorescence intensity)); higher = stronger DNA binding
In short: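 After 1 h on an Agilent 4 × 180k array of primer-extended double-stranded 36-bp intergenic genomic probes and negative controls, bound GST-tagged P. falciparum DNA-binding domains were detected with Alexa488 anti-GST antibody and scanned at 488 nm. The domains had been expressed in E. coli, and binding took place in 1× PBS with 1% milk, 0.2 mg/ml BSA, 0.5% salmon testes DNA and 0.03% Triton X-100. Binding intensity is the highest Masliner-normalised natural-log median intensity across replicate spots of either probe orientation.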

Sequence	gcPBM binding intensity (ln)
CTCAAAAAATTTCATAGTACTTTAAAATACTATAAT [XGTACX_site1939]	6.95
AATAAAAAAAAACGCACACACAAATATATTCCATTC [CACACA_site1224]	7.15
TTTTGTTCTAATATGGGAACATAAATATTAAATATA [CACACA_negctrl_site1787]	6.75
TATATATATAAATGAATGCACTTTAGAAAAAAGTAC	8.52
ATATATATTATAATAACACACATATATTATATTATA [CACACA_site406]	7.07
AATAAAATACAAAAATGTACAAATATAATATACATA [XGTACX_site279]	7.07
TAATAATATAAATATGCACACAAATTATTACCCAAA [CACACA_site8805]	9.17
ATAAAATAAAACAACACACACGAATGTATAAATATA [CACACA_site4643]	6.8
TAGATATATAGAATTACACACTTTTCTATAATATGA [CACACA_site6475]	6.74
TAATATAAAATGATAAATGAATGTGATCATTTTATA [CACACA_negctrl_site1034]	6.62
ACATACTCAAATAGCACACACATAAATAAAAATGTA [CACACA_site3864]	7.24
ATATATATTTAAAACGCATGCCTTGTTATATATATA [TGCATGCA_site624]	7.59
CATATATATTTTATATGTACATATATATTTTATATA [XGTACX_site8665]	7.03
ATTACAAAAATATATAAACACACAAATATAATATAT [CACACA_site8962]	7.04
ATAAAGATTTTCCAAGCATGCCACATAGTGAGATAC [TGCATGCA_site594]	7.13
ATCATAAAAGTATACACACATACATACATATGTACA [CACACA_site2641]	7.13
TTATATATTTTTACCATACACACATATAATAAATAT [CACACA_site3721]	7.29
TAAATATATATATATGTACACACTCCAATACATATA [CACACA_site8858]	7.4
TATATATATATTATATGTACATATTCCTATATATAC [XGTACX_site7071]	9.06
ACTTTATATTTTGAACGTACAAAAAAAAAATTATGT [XGTACX_site5588]	7.44
AACCATTAATTCTCTACACACTTTTATTTTATTTAG [CACACA_site1769]	6.88
GCACATATATACATACATACATACATACATATGTAT [TGCATGCA_negctrl_site95]	7.17

Sequence	gcPBM binding intensity (ln)
AAGTATGCATTATATACACACATACATTTATATATT [CACACA_site4242]	7.02
TTGGTTATACAACACATGCACACGTAAATAAATATT [CACACA_site3841]	7.48
ATTATGTTAAAAAGGCGTACATGTTATAAGGTCCTA [XGTACX_site344]	7.7
TATATATAAAGAGAAACATGCAAAATGTGAATATTC [TGCATGCA_site377]	6.88
TCCTTATAAATATATATATAATATATATATATATAT [CACACA_negctrl_site293]	8.56
TATATATATATTTATACACACATTAGTGTAGACATG [CACACA_site8964]	8.53
TTGTTCTAATATATTGCACACGTAAAAATATAGGTA [CACACA_site8195]	7.49
ATATAATATATATGGTGTACATTTTTTAGTGCTATT [XGTACX_site1662]	7.28
TAAAAGAATAAAAGTAGTACTTTTTTTTATATTAGA [XGTACX_site368]	7.14
AAAAAGTGACTCCTTACACACTTTACATAATTTAGT [CACACA_site4606]	6.92
TCTTTTTTTTTTTATTGTACAAGAAAAGGAAAAAAT [XGTACX_site3717]	7.46
ATATTTTTATATTAGTGTACTTATTATAATGTATAG [XGTACX_site8185]	7.31
ATAATATGTAATATTACACACAATTCATCATTTTTT [CACACA_site3159]	6.91
ATATACACCGTTGAATGTACATAAATAATATTAATA [XGTACX_site2893]	7.17
AGTACATTTTTTTTAATAGGAAAAAAAATATTTATT [TGCATGCA_negctrl_site575]	6.85
AAGTATTATTTTTATGCATGTGAAGTGCAAAATAAA [TGCATGCA_site198]	9.56
TTTTAAAGAAAATATTTTATCATTATTTTTTGTACT [CACACA_negctrl_site1648]	6.66
TTTTAAAATTTTTTTTTTTTTTTTTTATGAACAAGT [GTGCAC_negctrl_site124]	7.09
AATATTTTAAATATTGCATGCAATGAAAAATGTAAA [TGCATGCA_site139]	7.09
TCTTATTTTTTTATATATACAAAGTTTTATATATAT [GTGCAC_negctrl_site314]	7.27
GTTCAATCGGGTGTTACTTCAAACAAGGAACAACAA [TGCATGCA_negctrl_site471]	7.19
ATAGTAAATATAAAAAGTACTGATTCTTAAATTGTT [XGTACX_site5972]	7.04
